ChEMBL document CHEMBL4689842, “EUbOPEN Chemogenomics Library wave 1” (2021)

Key:
Type in all cases: toxicity, cell-based
[1] = test system: Fibroblast; assay: Multiplex assay against human fibroblast
How it was run: (§1)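 At seeding, live cells were stained with Hoechst33342, BioTracker Green Microtubule Cytoskeleton Dye, MitoTracker Red and Annexin V Alexa Fluor 680. After compound addition they were imaged on a CQ1 microscope at 37°C and 5% CO2, and CellPathfinder machine-learning gating sorted them into Hoechst high-intensity objects or normal cells, with normal cells further split into healthy, pyknosed or fragmented nuclei and pyknosed cells into mitotic or apoptotic. Tubulin, mitochondrial-mass and membrane-permeability phenotypes are given as per cents of cells with healthy nuclei.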

[2] = test system: U2OS; assay: Multiplex assay against U2OS; conditions: human; how it was run: as §1
[3] = test system: HEK-293T; assay: Multiplex assay against HEK293T; conditions: human; how it was run: as §1;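 for Population Tubulin-Different-Phenotype (%): share of the cells with healthy nuclei that show this phenotype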
[4] = 12 h, 1 µM, compound concentration 1 uM, replicate 1
[5] = 12 h, 1 µM, compound concentration 1 uM, replicate 2
[6] = 24 h, 1 µM, compound concentration 1 uM, replicate 1
[7] = 24 h, 1 µM, compound concentration 1 uM, replicate 2
[8] = 24 h, 10 µM, compound concentration 10 uM, replicate 2
[9] = 12 h, 10 µM, compound concentration 10 uM, replicate 1
[10] = 12 h, 10 µM, compound concentration 10 uM, replicate 2
[11] = 24 h, 10 µM, compound concentration 10 uM, replicate 1

CCC1=C[C@@H]2C[N@](C1)Cc1c([nH]c3ccccc13)[C@@](C(=O)OC)(c1cc3c(cc1OC)N(C)[C@H]1[C@@](O)(C(=O)OC)[C@H](OC(C)=O)[C@]4(CC)C=CCN5CC[C@]31[C@@H]54)C2.O=C(O)C(O)C(O)C(=O)O.O=C(O)C(O)C(O)C(=O)O [VINORELBINE TARTRATE]
Population Membrane Permeable-Phenotype (%) [1, 4]: 11% and 3% | Population Pyknosed Nuclei (%) [1, 5]: 2% and 8% | Population Tubulin-Different-Phenotype (%) [1, 5]: 33% and 0% | Population Membrane Permeable-Phenotype (%) [1, 6]: 2% and 7% | Total Cell Count [1, 6]: 440 and 140 | Population Apoptotic (%) [1, 7]: 0% and 60% | Population Membrane Permeable-Phenotype (%) [1, 7]: 33% and 9% | Population Apoptotic (%) [1, 8]: 20% and 100% | Population Mitotic Cells (%) [1, 8]: 80% and 0% | Population Pyknosed Nuclei (%) [1, 8]: 7% and 1% | Population Hoechst High Intensity Objects (%) [2, 4]: 2% and 7% | Population Membrane Permeable-Phenotype (%) [2, 4]: 57% and 16% | Total Cell Count [2, 4]: 145 and 2893 | Population Apoptotic (%) [2, 5]: 64% and 20% | Population Membrane Permeable-Phenotype (%) [2, 5]: 52% and 11% | Total Cell Count [2, 5]: 105 and 3493 | Population Membrane Permeable-Phenotype (%) [2, 9]: 66% and 13% | Population Apoptotic (%) [2, 10]: 59% and 17% | Total Cell Count [2, 6]: 3211 and 173 | Total Cell Count [2, 7]: 111 and 3609 | Population Membrane Permeable-Phenotype (%) [2, 8]: 61% and 15% | Population Mitotic Cells (%) [2, 8]: 17% and 52% | Population Membrane Permeable-Phenotype (%) [3, 4]: 16% and 4% | Population Tubulin-Different-Phenotype (%) [3, 4]: 25% and 5% | Population Tubulin-Different-Phenotype (%) [3, 5]: 47% and 2% | Population Membrane Permeable-Phenotype (%) [3, 9]: 23% and 2% | Population Tubulin-Different-Phenotype (%) [3, 9]: 35% and 5% | Population Tubulin-Different-Phenotype (%) [3, 10]: 52% and 2% | Population Mitochondria Different-Phenotype (%) [3, 6]: 5% and 25% | Population Tubulin-Different-Phenotype (%) [3, 6]: 6% and 55% | Population Tubulin-Different-Phenotype (%) [3, 7]: 71% and 1% | Population Membrane Permeable-Phenotype (%) [3, 11]: 2% and 12% | Population Tubulin-Different-Phenotype (%) [3, 11]: 6% and 54% | Population Mitochondria Different-Phenotype (%) [3, 8]: 26% and 6% | Population Tubulin-Different-Phenotype (%) [3, 8]: 79% and 3%

Cc1cc(C)c(-n2ccn3nc(-c4cccnc4)cc23)cc1NC(=O)c1cc(C#N)cc(S(F)(F)(F)(F)F)c1 [BAY-826]
Population Membrane Permeable-Phenotype (%) [1, 4]: 21% and 5% | Population Tubulin-Different-Phenotype (%) [1, 4]: 56% and 14% | Population Mitochondria Different-Phenotype (%) [1, 5]: 10% and 36% | Population Mitotic Cells (%) [1, 5]: 50% and 8% | Population Membrane Permeable-Phenotype (%) [1, 6]: 22% and 4% | Population Tubulin-Different-Phenotype (%) [1, 6]: 34% and 4% | Population Apoptotic (%) [1, 7]: 20% and 84% | Population Membrane Permeable-Phenotype (%) [1, 7]: 0% and 41% | Population Mitochondria Different-Phenotype (%) [1, 7]: 5% and 25% | Population Mitotic Cells (%) [1, 7]: 80% and 15% | Population Mitotic Cells (%) [2, 6]: 50% and 15% | Population Pyknosed Nuclei (%) [2, 6]: 7% and 27% | Population Mitochondria Different-Phenotype (%) [2, 7]: 97% and 30% | Population Apoptotic (%) [3, 5]: 20% and 6% | Population Fragmented Nuclei (%) [3, 7]: 16% and 5% | Population Mitochondria Different-Phenotype (%) [3, 7]: 10% and 46% | Population Pyknosed Nuclei (%) [3, 7]: 4% and 25%

CN1CCN(Cc2cc(NC(=O)c3ccc4c(c3)CN(c3ccccc3)CC4)cc(C(F)(F)F)c2)CC1
Population Membrane Permeable-Phenotype (%) [1, 5]: 22% and 6% | Population Tubulin-Different-Phenotype (%) [1, 5]: 18% and 55% | Population Tubulin-Different-Phenotype (%) [1, 6]: 41% and 12% | Population Mitotic Cells (%) [1, 7]: 0% and 60% | Population Fragmented Nuclei (%) [2, 4]: 20% and 5% | Population Mitochondria Different-Phenotype (%) [2, 4]: 62% and 14% | Population Pyknosed Nuclei (%) [2, 4]: 15% and 4% | Population Apoptotic (%) [2, 5]: 34% and 0% | Population Mitochondria Different-Phenotype (%) [2, 5]: 68% and 17% | Population Mitochondria Different-Phenotype (%) [2, 6]: 75% and 10% | Population Pyknosed Nuclei (%) [2, 6]: 38% and 3% | Population Tubulin-Different-Phenotype (%) [2, 6]: 94% and 26% | Population Apoptotic (%) [2, 7]: 55% and 12% | Population Mitochondria Different-Phenotype (%) [2, 7]: 85% and 16% | Population Pyknosed Nuclei (%) [2, 7]: 34% and 9% | Population Tubulin-Different-Phenotype (%) [2, 7]: 98% and 23% | Population Mitochondria Different-Phenotype (%) [3, 4]: 39% and 11% | Population Tubulin-Different-Phenotype (%) [3, 4]: 82% and 17% | Population Hoechst High Intensity Objects (%) [3, 5]: 10% and 2% | Population Membrane Permeable-Phenotype (%) [3, 5]: 19% and 4% | Population Tubulin-Different-Phenotype (%) [3, 5]: 98% and 23% | Population Hoechst High Intensity Objects (%) [3, 6]: 29% and 9% | Population Membrane Permeable-Phenotype (%) [3, 6]: 21% and 6% | Population Tubulin-Different-Phenotype (%) [3, 6]: 89% and 26% | Population Hoechst High Intensity Objects (%) [3, 7]: 10% and 3% | Population Membrane Permeable-Phenotype (%) [3, 7]: 34% and 9% | Population Mitochondria Different-Phenotype (%) [3, 7]: 14% and 2% | Population Pyknosed Nuclei (%) [3, 7]: 7% and 2% | Population Tubulin-Different-Phenotype (%) [3, 7]: 96% and 19%

C[C@]1(O)C[C@@H](c2nc(-c3ccc4ccc(-c5ccccc5)nc4c3)c3c(N)nccn32)C1 [LINSITINIB]
Population Mitotic Cells (%) [1, 4]: 43% and 6% | Population Tubulin-Different-Phenotype (%) [1, 4]: 23% and 6% | Population Mitochondria Different-Phenotype (%) [1, 5]: 7% and 27% | Population Tubulin-Different-Phenotype (%) [1, 5]: 7% and 72% | Population Tubulin-Different-Phenotype (%) [1, 6]: 20% and 6% | Population Mitochondria Different-Phenotype (%) [1, 7]: 10% and 36% | Population Tubulin-Different-Phenotype (%) [1, 7]: 10% and 63% | Population Membrane Permeable-Phenotype (%) [2, 4]: 33% and 9% | Population Hoechst High Intensity Objects (%) [2, 6]: 5% and 1% | Population Apoptotic (%) [2, 7]: 40% and 0% | Population Hoechst High Intensity Objects (%) [2, 7]: 4% and 13% | Population Tubulin-Different-Phenotype (%) [3, 4]: 49% and 8% | Population Mitochondria Different-Phenotype (%) [3, 5]: 50% and 15% | Population Tubulin-Different-Phenotype (%) [3, 5]: 85% and 17% | Population Tubulin-Different-Phenotype (%) [3, 6]: 73% and 18% | Population Apoptotic (%) [3, 7]: 19% and 6% | Population Mitochondria Different-Phenotype (%) [3, 7]: 41% and 3% | Population Tubulin-Different-Phenotype (%) [3, 7]: 92% and 24%

CCOC(=O)Nc1cc(-c2ccc(C)c(NS(C)(=O)=O)c2)nn2c(C)nnc12
Population Membrane Permeable-Phenotype (%) [1, 9]: 34% and 10% | Population Tubulin-Different-Phenotype (%) [1, 9]: 31% and 5% | Population Fragmented Nuclei (%) [1, 10]: 51% and 8% | Population Hoechst High Intensity Objects (%) [1, 10]: 22% and 2% | Population Mitochondria Different-Phenotype (%) [1, 10]: 3% and 11% | Population Tubulin-Different-Phenotype (%) [1, 10]: 12% and 89% | Population Tubulin-Different-Phenotype (%) [1, 11]: 22% and 5% | Population Apoptotic (%) [1, 8]: 0% and 28% | Population Fragmented Nuclei (%) [1, 8]: 52% and 3% | Population Hoechst High Intensity Objects (%) [1, 8]: 28% and 2% | Population Pyknosed Nuclei (%) [1, 8]: 1% and 5% | Population Tubulin-Different-Phenotype (%) [1, 8]: 6% and 96% | Population Mitochondria Different-Phenotype (%) [2, 9]: 7% and 22% | Population Tubulin-Different-Phenotype (%) [2, 9]: 96% and 27% | Population Apoptotic (%) [2, 10]: 40% and 0% | Population Apoptotic (%) [2, 11]: 11% and 66% | Population Tubulin-Different-Phenotype (%) [2, 11]: 95% and 25% | Population Healthy Nuclei (%) [3, 9]: 23% and 77% | Population Mitochondria Different-Phenotype (%) [3, 9]: 62% and 5% | Population Pyknosed Nuclei (%) [3, 9]: 57% and 13% | Population Tubulin-Different-Phenotype (%) [3, 9]: 12% and 2% | Population Pyknosed Nuclei (%) [3, 10]: 3% and 41% | Total Cell Count [3, 10]: 2390 and 206 | Population Mitochondria Different-Phenotype (%) [3, 11]: 27% and 4% | Population Pyknosed Nuclei (%) [3, 11]: 48% and 5% | Total Cell Count [3, 11]: 298 and 958 | Population Apoptotic (%) [3, 8]: 1% and 4% | Population Fragmented Nuclei (%) [3, 8]: 6% and 45% | Population Pyknosed Nuclei (%) [3, 8]: 24% and 1% | Total Cell Count [3, 8]: 268 and 3866

Cc1cc(NC(=O)c2cccc(S(F)(F)(F)(F)F)c2)cc(-n2ccn3nc(-c4cccnc4)cc23)c1 [BAY-309]
Population Membrane Permeable-Phenotype (%) [1, 9]: 24% and 4% | Population Tubulin-Different-Phenotype (%) [1, 9]: 84% and 24% | Population Membrane Permeable-Phenotype (%) [1, 11]: 10% and 1% | Population Mitochondria Different-Phenotype (%) [1, 11]: 37% and 11% | Population Mitotic Cells (%) [1, 8]: 40% and 9% | Population Mitochondria Different-Phenotype (%) [2, 10]: 19% and 79% | Population Mitochondria Different-Phenotype (%) [2, 11]: 21% and 81% | Population Pyknosed Nuclei (%) [2, 11]: 6% and 23% | Population Mitotic Cells (%) [2, 8]: 4% and 62% | Population Pyknosed Nuclei (%) [2, 8]: 24% and 7% | Population Apoptotic (%) [3, 9]: 65% and 16% | Population Apoptotic (%) [3, 10]: 7% and 45% | Population Mitochondria Different-Phenotype (%) [3, 10]: 14% and 59% | Population Pyknosed Nuclei (%) [3, 10]: 8% and 25% | Population Apoptotic (%) [3, 11]: 84% and 17% | Population Mitochondria Different-Phenotype (%) [3, 11]: 53% and 12% | Population Mitotic Cells (%) [3, 11]: 15% and 82% | Population Pyknosed Nuclei (%) [3, 11]: 50% and 12% | Population Apoptotic (%) [3, 8]: 5% and 54% | Population Fragmented Nuclei (%) [3, 8]: 15% and 2% | Population Membrane Permeable-Phenotype (%) [3, 8]: 28% and 7% | Population Mitochondria Different-Phenotype (%) [3, 8]: 5% and 65% | Population Pyknosed Nuclei (%) [3, 8]: 5% and 31%

For part of its entries the source gives two or more results. This is not the full list of results. There may be further records. Values that stand side by side are repeated measurements in other runs, samples, wells, individuals or studies.
